Tests used:
[1] = substrate: CC(=O)N[C@@H](C)C(=O)N[C@@H](Cc1cnc[nH]1)C(=O)N[C@@H](CC(C)C)C(=O)NCC(=O)N[C@@H](CC(C)C)C(=O)N[C@@H](C)C(=O)N[C@@H](CCCNC(=N)N)C(=O)Nc1ccc([N+](=O)[O-])cc1; assay: (§1) Activity of human complement factor B assessed as substrate hydrolysis
[2] = substrate: CC(=O)N[C@@H](CCCNC(=N)N)C(=O)N[C@@H](C)C(=O)N[C@@H](CO)C(=O)N[C@@H](Cc1cnc[nH]1)C(=O)N[C@@H](CC(C)C)C(=O)NCC(=O)N[C@@H](CC(C)C)C(=O)N[C@@H](C)C(=O)N[C@@H](CCCNC(=N)N)C(=O)Nc1ccc([N+](=O)[O-])cc1; assay: as §1
[3] = substrate: CC(=O)N[C@@H](CO)C(=O)N[C@@H](Cc1cnc[nH]1)C(=O)N[C@@H](CC(C)C)C(=O)NCC(=O)N[C@@H](CC(C)C)C(=O)N[C@@H](C)C(=O)N[C@@H](CCCNC(=N)N)C(=O)Nc1ccc([N+](=O)[O-])cc1; assay: as §1
[4] = substrate: CC(=O)N[C@@H](C)C(=O)N[C@@H](CO)C(=O)N[C@@H](Cc1cnc[nH]1)C(=O)N[C@@H](CC(C)C)C(=O)NCC(=O)N[C@@H](CC(C)C)C(=O)N[C@@H](C)C(=O)N[C@@H](CCCNC(=N)N)C(=O)Nc1ccc([N+](=O)[O-])cc1; assay: as §1
[5] = substrate: CC(=O)N[C@@H](C)C(=O)N[C@@H](CCCNC(=N)N)C(=O)N[C@@H](C)C(=O)N[C@@H](CO)C(=O)N[C@@H](Cc1cnc[nH]1)C(=O)N[C@@H](CC(C)C)C(=O)NCC(=O)N[C@@H](CC(C)C)C(=O)N[C@@H](C)C(=O)N[C@@H](CCCNC(=N)N)C(=O)Nc1ccc([N+](=O)[O-])cc1; assay: as §1
[6] = substrate: CC(=O)N[C@@H](CCCCN)C(=O)N[C@@H](Cc1cnc[nH]1)C(=O)N[C@@H](CC(C)C)C(=O)NCC(=O)N[C@@H](CC(C)C)C(=O)N[C@@H](C)C(=O)N[C@@H](CCCNC(=N)N)C(=O)Nc1ccc([N+](=O)[O-])cc1; assay: as §1
[7] = substrate: CC(=O)N[C@@H](C)C(=O)N[C@@H](Cc1cnc[nH]1)C(=O)N[C@@H](CC(C)C)C(=O)NCC(=O)N[C@@H](CC(C)C)C(=O)N[C@@H](C)C(=O)N[C@@H](CCCNC(=N)N)C(=O)Nc1ccc([N+](=O)[O-])cc1; assay: (§2) Ratio of kcat to Km for human complement factor B
In short: (§3)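 Human factor B (25, 50 or 75 nM) in 100 mM glycine-HCl, 154 mM NaCl, pH 9.5, 37 °C. Substrate and enzyme were preincubated separately for 5 min, then mixed. Eight pNA-peptide concentrations (0.2–10.0 mM, or 0.1–3.0 mM) were run in duplicate. A405 was read every 30–60 s for 30–120 min. Initial velocities were fitted by weighted nonlinear Michaelis-Menten regression.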

[8] = substrate: CC(=O)N[C@@H](CCCNC(=N)N)C(=O)N[C@@H](C)C(=O)N[C@@H](CO)C(=O)N[C@@H](Cc1cnc[nH]1)C(=O)N[C@@H](CC(C)C)C(=O)NCC(=O)N[C@@H](CC(C)C)C(=O)N[C@@H](C)C(=O)N[C@@H](CCCNC(=N)N)C(=O)Nc1ccc([N+](=O)[O-])cc1; assay: as §2; in short: as §3
[9] = substrate: CC(=O)N[C@@H](CO)C(=O)N[C@@H](Cc1cnc[nH]1)C(=O)N[C@@H](CC(C)C)C(=O)NCC(=O)N[C@@H](CC(C)C)C(=O)N[C@@H](C)C(=O)N[C@@H](CCCNC(=N)N)C(=O)Nc1ccc([N+](=O)[O-])cc1; assay: as §2; in short: as §3
[10] = substrate: CC(=O)N[C@@H](C)C(=O)N[C@@H](CO)C(=O)N[C@@H](Cc1cnc[nH]1)C(=O)N[C@@H](CC(C)C)C(=O)NCC(=O)N[C@@H](CC(C)C)C(=O)N[C@@H](C)C(=O)N[C@@H](CCCNC(=N)N)C(=O)Nc1ccc([N+](=O)[O-])cc1; assay: as §2; in short: as §3
[11] = substrate: CC(=O)N[C@@H](C)C(=O)N[C@@H](CCCNC(=N)N)C(=O)N[C@@H](C)C(=O)N[C@@H](CO)C(=O)N[C@@H](Cc1cnc[nH]1)C(=O)N[C@@H](CC(C)C)C(=O)NCC(=O)N[C@@H](CC(C)C)C(=O)N[C@@H](C)C(=O)N[C@@H](CCCNC(=N)N)C(=O)Nc1ccc([N+](=O)[O-])cc1; assay: as §2; in short: as §3
[12] = substrate: CC(=O)N[C@@H](CCCCN)C(=O)N[C@@H](Cc1cnc[nH]1)C(=O)N[C@@H](CC(C)C)C(=O)NCC(=O)N[C@@H](CC(C)C)C(=O)N[C@@H](C)C(=O)N[C@@H](CCCNC(=N)N)C(=O)Nc1ccc([N+](=O)[O-])cc1; assay: as §2; in short: as §3

B1: Complement factor B (Homo sapiens), P00751 (protein)
chain: MGSNLSPQLCLMPFILGLLSGGVTTTPWSLARPQGSCSLEGVEIKGGSFRLLQEGQALEYVCPSGFYPYPVQTRTCRSTGSWSTLKTQDQKTVRKAECRAIHCPRPHDFENGEYWPRSPYYNVSDEISFHCYDGYTLRGSANRTCQVNGRWSGQTAICDNGAGYCSNPGIPIGTRKVGSQYRLEDSVTYHCSRGLTLRGSQRRTCQEGGSWSGTEPSCQDSFMYDTPQEVAEAFLSSLTETIEGVDAEDGHGPGEQQKRKIVLDPSGSMNIYLVLDGSDSIGASNFTGAKKCLVNLIEKVASYGVKPRYGLVTYATYPKIWVKVSEADSSNADWVTKQLNEINYEDHKLKSGTNTKKALQAVYSMMSWPDDVPPEGWNRTRHVIILMTDGLHNMGGDPITVIDEIRDLLYIGKDRKNPREDYLDVYVFGVGPLVNQVNINALASKKDNEQHVFKVKDMENLEDVFYQMIDESQSLSLCGMVWEHRKGTDYHKQPWQAKISVIRPSKGHESCMGAVVSEYFVLTAAHCFTVDDKEHSIKVSVGGEKRDLEIEVVLFHPNYNINGKKEAGIPEFYDYDVALIKLKNKLKYGQTIRPICLPCTEGTTRALRLPPTTTCQQQKEELLPAQDIKALFVSEEEKKLTRKEVYIKNGDKKGSCERDAQYAPGYDKVKDISEVVTPRFLCTGGVSPYADPNTCRGDSGGPLIVHKRSRFIQVGVISWGVVDVCKNQKRQKQVPAHARDFHINLFQVLPWLKEKLQDEDLGFL
[1]
  Km: 2840 µM
  kcat: 8.2 s⁻¹
[2]
  Km: 15800 µM
  kcat: 12.8 s⁻¹
[3]
  Km: 1050 µM
  kcat: 8.38 s⁻¹
[4]
  Km: 2190 µM
  kcat: 10.2 s⁻¹
[5]
  Km: 12400 µM
  kcat: 12.6 s⁻¹
[6]
  Km: 2790 µM
  kcat: 8.25 s⁻¹
[7]
  kcat/Km: 2880
[8]
  kcat/Km: 810
[9]
  kcat/Km: 8320
[10]
  kcat/Km: 4670
[11]
  kcat/Km: 1020
[12]
  kcat/Km: 3040
